# Measured values from the supplement of paper PMC8728848.
# The other results are listed elsewhere or left out.
# B1: HML-Native (Hypnea musciformis), P84871 (protein)
# chain: QKFCTLDIAPVCCQIVIGGGMYTAGNACMCEGFVSGVGRCENPKECPCTREAQIPSCCSSRWGLVSVTGKCACDCLGGTVAFPEPCPSPY
# Experiments:
# Assay in all cases: glycan array binding signal (z-score within array); higher = stronger binding
# Details in all cases: glycan notation: IUPAC condensed, linker removed
# [1] = target: Neu5Ac(a2-3)Gal(b1-4)GlcNAc(b1-3)[Neu5Ac(a2-3)Gal(b1-4)GlcNAc(b1-6)]GalNAc
# In short: (§1)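 Negative Z-scores can be read as non-binding. The Z-score is calculated within each array and then averaged across arrays of one protein sequence at different concentrations or buffers and across linkers. Arrays, 3228 in all, were curated from the Consortium for Functional Glycomics database and kept only where the protein sequence was available.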
# [2] = target: Neu5Ac(a2-3)Gal(b1-4)GlcNAc(b1-6)GalNAc
# In short: as §1
# [3] = target: Neu5Ac(a2-3)Gal(b1-4)GlcNAc(b1-6)[Gal(b1-3)]GalNAc
# In short: as §1
# [4] = target: Neu5Ac(a2-3)Gal(b1-4)GlcNAc(b1-6)[Neu5Ac(a2-3)Gal(b1-3)]GalNAc
# In short: as §1
# [5] = target: Neu5Ac(a2-3)Gal(b1-4)GlcNAc6S
# In short: as §1
# [6] = target: Neu5Ac(a2-3)Gal(b1-4)[Fuc(a1-3)]GlcNAc
# In short: as §1
# [7] = target: Neu5Ac(a2-3)Gal(b1-4)[Fuc(a1-3)]GlcNAc(b1-2)Man
# In short: as §1
# [8] = target: Neu5Ac(a2-3)Gal(b1-4)[Fuc(a1-3)]GlcNAc(b1-3)Gal
# In short: as §1
# [9] = target: Neu5Ac(a2-3)Gal(b1-4)[Fuc(a1-3)]GlcNAc(b1-3)Gal(b1-4)GlcNAc
# In short: as §1
# [10] = target: Neu5Ac(a2-3)Gal(b1-4)[Fuc(a1-3)]GlcNAc(b1-3)Gal(b1-4)[Fuc(a1-3)]GlcNAc(b1-3)Gal(b1-4)[Fuc(a1-3)]GlcNAc
# In short: as §1
# [11] = target: Neu5Ac(a2-3)Gal(b1-4)[Fuc(a1-3)]GlcNAc(b1-3)GalNAc
# In short: as §1
# [12] = target: Neu5Ac(a2-3)Gal(b1-4)[Fuc(a1-3)]GlcNAc(b1-6)[Gal(b1-3)]GalNAc
# In short: as §1
# [13] = target: Neu5Ac(a2-3)Gal(b1-4)[Fuc(a1-3)]GlcNAc(b1-6)[Neu5Ac(a2-3)Gal(b1-3)]GalNAc
# In short: as §1
# [14] = target: Neu5Ac(a2-3)Gal(b1-4)[Fuc(a1-3)]GlcNAc6S
# In short: as §1
# [15] = target: Neu5Ac(a2-3)Gal6S(b1-4)GlcNAc
# In short: as §1
# [16] = target: Neu5Ac(a2-3)Gal6S(b1-4)[Fuc(a1-3)]GlcNAc
# In short: as §1
# Neu5Ac(a2-3)GalNAc = target: Neu5Ac(a2-3)GalNAc
# In short: as §1
# [17] = target: Neu5Ac(a2-3)GalNAc(b1-4)GlcNAc
# In short: as §1
# [18] = target: Neu5Ac(a2-3)[GalNAc(b1-4)]Gal(b1-4)Glc
# In short: as §1
# [19] = target: Neu5Ac(a2-3)[GalNAc(b1-4)]Gal(b1-4)GlcNAc
# In short: as §1
# [20] = target: Neu5Ac(a2-3)[GalNAc(b1-4)]Gal(b1-4)GlcNAc(b1-3)GalNAc
# In short: as §1
# [21] = target: Neu5Ac(a2-3)[Neu5Ac(a2-6)]GalNAc
# In short: as §1
# Neu5Ac(a2-6)Gal = target: Neu5Ac(a2-6)Gal
# In short: as §1
# [22] = target: Neu5Ac(a2-6)Gal(b1-3)GlcNAc(b1-3)[Gal(b1-4)GlcNAc(b1-6)]Gal(b1-4)Glc
# In short: as §1
# Neu5Ac(a2-6)Gal(b1-4)Glc = target: Neu5Ac(a2-6)Gal(b1-4)Glc
# In short: as §1
# [23] = target: Neu5Ac(a2-6)Gal(b1-4)GlcNAc
# In short: as §1
# [24] = target: Neu5Ac(a2-6)Gal(b1-4)GlcNAc(b1-2)Man
# In short: as §1
# [25] = target: Neu5Ac(a2-6)Gal(b1-4)GlcNAc(b1-2)Man(a1-3)Man(b1-4)GlcNAc(b1-4)GlcNAc
# In short: as §1
# [26] = target: Neu5Ac(a2-6)Gal(b1-4)GlcNAc(b1-2)Man(a1-3)[Gal(b1-4)GlcNAc(b1-2)Man(a1-6)]Man(b1-4)GlcNAc(b1-4)GlcNAc
# In short: as §1
# [27] = target: Neu5Ac(a2-6)Gal(b1-4)GlcNAc(b1-2)Man(a1-3)[GlcNAc(b1-2)Man(a1-6)]Man(b1-4)GlcNAc(b1-4)GlcNAc
# In short: as §1
# [28] = target: Neu5Ac(a2-6)Gal(b1-4)GlcNAc(b1-2)Man(a1-3)[GlcNAc(b1-4)][Neu5Ac(a2-6)Gal(b1-4)GlcNAc(b1-2)Man(a1-6)]Man(b1-4)GlcNAc(b1-4)GlcNAc
# In short: as §1
# [29] = target: Neu5Ac(a2-6)Gal(b1-4)GlcNAc(b1-2)Man(a1-3)[Man(a1-6)]Man(b1-4)GlcNAc(b1-4)GlcNAc
# In short: as §1
# [30] = target: Neu5Ac(a2-6)Gal(b1-4)GlcNAc(b1-2)Man(a1-3)[Neu5Ac(a2-3)Gal(b1-4)GlcNAc(b1-2)Man(a1-6)]Man(b1-4)GlcNAc(b1-4)GlcNAc
# In short: as §1
# [31] = target: Neu5Ac(a2-6)Gal(b1-4)GlcNAc(b1-2)Man(a1-3)[Neu5Ac(a2-6)Gal(b1-4)GlcNAc(b1-2)Man(a1-6)]Man(b1-4)GlcNAc(b1-4)GlcNAc
# In short: as §1
# [32] = target: Neu5Ac(a2-6)Gal(b1-4)GlcNAc(b1-2)Man(a1-3)[Neu5Ac(a2-6)Gal(b1-4)GlcNAc(b1-2)Man(a1-6)]Man(b1-4)GlcNAc(b1-4)[Fuc(a1-6)]GlcNAc
# In short: as §1
# [33] = target: Neu5Ac(a2-6)Gal(b1-4)GlcNAc(b1-2)Man(a1-6)Man(b1-4)GlcNAc(b1-4)GlcNAc
# In short: as §1
# [34] = target: Neu5Ac(a2-6)Gal(b1-4)GlcNAc(b1-2)Man(a1-6)[Gal(b1-4)GlcNAc(b1-2)Man(a1-3)]Man(b1-4)GlcNAc(b1-4)GlcNAc
# In short: as §1
# [35] = target: Neu5Ac(a2-6)Gal(b1-4)GlcNAc(b1-2)Man(a1-6)[GlcNAc(b1-2)Man(a1-3)]Man(b1-4)GlcNAc(b1-4)GlcNAc
# In short: as §1
# [36] = target: Neu5Ac(a2-6)Gal(b1-4)GlcNAc(b1-2)Man(a1-6)[Man(a1-3)]Man(b1-4)GlcNAc(b1-4)GlcNAc
# In short: as §1
# [37] = target: Neu5Ac(a2-6)Gal(b1-4)GlcNAc(b1-2)[Neu5Ac(a2-6)Gal(b1-4)GlcNAc(b1-4)]Man(a1-3)[GlcNAc(b1-4)][Neu5Ac(a2-6)Gal(b1-4)GlcNAc(b1-2)[Neu5Ac(a2-6)Gal(b1-4)GlcNAc(b1-6)]Man(a1-6)]Man(b1-4)GlcNAc(b1-4)GlcNAc
# In short: as §1
# [38] = target: Neu5Ac(a2-6)Gal(b1-4)GlcNAc(b1-2)[Neu5Ac(a2-6)Gal(b1-4)GlcNAc(b1-4)]Man(a1-3)[GlcNAc(b1-4)][Neu5Ac(a2-6)Gal(b1-4)GlcNAc(b1-4)Man(a1-6)]Man(b1-4)GlcNAc(b1-4)GlcNAc
# In short: as §1
# [39] = target: Neu5Ac(a2-6)Gal(b1-4)GlcNAc(b1-2)[Neu5Ac(a2-6)Gal(b1-4)GlcNAc(b1-6)]Man(a1-6)[Neu5Ac(a2-6)Gal(b1-4)GlcNAc(b1-2)Man(a1-3)][GlcNAc(b1-4)]Man(b1-4)GlcNAc(b1-4)GlcNAc
# In short: as §1
# [40] = target: Neu5Ac(a2-6)Gal(b1-4)GlcNAc(b1-3)Gal(b1-3)GlcNAc
# In short: as §1
# [41] = target: Neu5Ac(a2-6)Gal(b1-4)GlcNAc(b1-3)Gal(b1-4)GlcNAc
# In short: as §1
# [42] = target: Neu5Ac(a2-6)Gal(b1-4)GlcNAc(b1-3)Gal(b1-4)GlcNAc(b1-2)Man(a1-3)[Neu5Ac(a2-6)Gal(b1-4)GlcNAc(b1-3)Gal(b1-4)GlcNAc(b1-2)Man(a1-6)]GalNAc
# In short: as §1
binder,measurement,setting,value
B1,glycan array binding signal (z-score),[1],-0.187
same,glycan array binding signal (z-score),[2],-0.316
same,glycan array binding signal (z-score),[3],-0.228
same,glycan array binding signal (z-score),[4],-0.37
same,glycan array binding signal (z-score),[5],-0.349
same,glycan array binding signal (z-score),[6],-0.244
same,glycan array binding signal (z-score),[7],-0.391
same,glycan array binding signal (z-score),[8],-0.222
same,glycan array binding signal (z-score),[9],-0.096
same,glycan array binding signal (z-score),[10],-0.017
same,glycan array binding signal (z-score),[11],-0.121
same,glycan array binding signal (z-score),[12],-0.226
same,glycan array binding signal (z-score),[13],-0.013
same,glycan array binding signal (z-score),[14],-0.271
same,glycan array binding signal (z-score),[15],-0.309
same,glycan array binding signal (z-score),[16],-0.342
same,glycan array binding signal (z-score),Neu5Ac(a2-3)GalNAc,-0.258
same,glycan array binding signal (z-score),[17],-0.276
same,glycan array binding signal (z-score),[18],-0.268
same,glycan array binding signal (z-score),[19],-0.293
same,glycan array binding signal (z-score),[20],-0.115
same,glycan array binding signal (z-score),[21],-0.23
same,glycan array binding signal (z-score),Neu5Ac(a2-6)Gal,-0.308
same,glycan array binding signal (z-score),[22],-0.317
same,glycan array binding signal (z-score),Neu5Ac(a2-6)Gal(b1-4)Glc,-0.255
same,glycan array binding signal (z-score),[23],-0.245
same,glycan array binding signal (z-score),[24],-0.251
same,glycan array binding signal (z-score),[25],-0.157
same,glycan array binding signal (z-score),[26],-0.255
same,glycan array binding signal (z-score),[27],-0.124
same,glycan array binding signal (z-score),[28],-0.244
same,glycan array binding signal (z-score),[29],-0.166
same,glycan array binding signal (z-score),[30],-0.139
same,glycan array binding signal (z-score),[31],-0.15
same,glycan array binding signal (z-score),[32],5.65
same,glycan array binding signal (z-score),[33],-0.291
same,glycan array binding signal (z-score),[34],-0.223
same,glycan array binding signal (z-score),[35],-0.302
same,glycan array binding signal (z-score),[36],-0.314
same,glycan array binding signal (z-score),[37],-0.321
same,glycan array binding signal (z-score),[38],-0.353
same,glycan array binding signal (z-score),[39],-0.283
same,glycan array binding signal (z-score),[40],-0.237
same,glycan array binding signal (z-score),[41],-0.307
same,glycan array binding signal (z-score),[42],-0.17
